Assay results taken from the supplement of paper PMC3334620.
Over roughly 33,000 sequences, “E-score (-0.5 to 0.5)” has its median near -0.012; the highest 2% begin near 0.27. This is one part of the list.

Biological target: T1, Vhr1 (UniProt P40522)
T1 sequence: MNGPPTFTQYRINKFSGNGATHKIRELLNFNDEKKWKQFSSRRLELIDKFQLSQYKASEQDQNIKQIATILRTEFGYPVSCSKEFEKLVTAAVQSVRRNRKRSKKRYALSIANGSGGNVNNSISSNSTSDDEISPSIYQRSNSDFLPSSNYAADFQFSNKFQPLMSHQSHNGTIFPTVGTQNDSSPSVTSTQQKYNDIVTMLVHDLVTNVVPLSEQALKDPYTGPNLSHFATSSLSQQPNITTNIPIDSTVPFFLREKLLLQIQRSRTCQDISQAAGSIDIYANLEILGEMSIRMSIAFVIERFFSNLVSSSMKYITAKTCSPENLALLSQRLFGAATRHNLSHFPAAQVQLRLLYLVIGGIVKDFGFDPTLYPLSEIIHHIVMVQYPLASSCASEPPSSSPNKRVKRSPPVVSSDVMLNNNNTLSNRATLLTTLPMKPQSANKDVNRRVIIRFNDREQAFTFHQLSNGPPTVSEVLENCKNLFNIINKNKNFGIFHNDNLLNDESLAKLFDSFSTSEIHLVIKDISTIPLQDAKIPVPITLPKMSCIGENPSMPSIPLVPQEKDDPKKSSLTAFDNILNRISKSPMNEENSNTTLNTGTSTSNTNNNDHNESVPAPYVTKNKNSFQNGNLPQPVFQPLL
Assay: PBM E-score (8-mer binding enrichment) (E-score (-0.5 to 0.5)); higher = stronger / more preferred TF binding; most listed sequences are background and not binding sites
Settings: protein concentration: 200 nM; construct: GST-full length
Outline: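 Full-length yeast transcription factors or their DNA-binding domains, GST-tagged and expressed with PURExpress, were applied at about 100-200 nM to universal all-10-mer Agilent arrays. These arrays had been made double-stranded by primer extension on fresh or once-stripped slides. Detection used fluorescent anti-GST, normalisation used masliner, and E-scores for ungapped eight-base words pooled with reverse complements came from the Universal PBM Analysis Suite.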

Sequence	PBM E-score
ATATGATC	0.208
ATTGCCAA	-0.0455
GTGAAGCA	-0.137
GCCAAAGA	-0.305
ACAGGCAA	-0.0839
CATAGGGC	-0.162
GACGGGTA	-0.133
CTTTTGGC	-0.283
AATGCAAC	-0.0181
TAATTCGA	-0.0539
ATACTTAA	-0.225
CTGACATC	0.0361
ATTTCAGC	-0.107
CCGCAGTA	0.0424
ACATTAGT	0.116
GTAAGCAA	-0.0299
TACGAGGA	0.0624
AATACTTA	-0.125
ACCTGGGA	0.137
CAGTTTAA	-0.224
CTCCTCAG	-0.08
TCCGTCGA	0.0957
GTCATCGA	0.205
TCGAAACA	0.116
CTTCCAGC	-0.279

Sequence	PBM E-score
CTATAAGA	-0.0546
GCCCTTAC	-0.259
ACCACCAG	0.215
CAGGGGCC	-0.184
ACTCGAGA	0.256
GCGGGCAC	0.154
AGAGGTCG	-0.0286
AGCTTTTC	-0.246
CTTGTAAC	0.145
AGGTTACG	-0.215
CTCGAGTA	0.2
ATGCTTTA	-0.0608
TCCTGCGA	0.111
GGCGCGCA	0.121
CGGAGGTA	0.0787
CGGATTGA	0.132
AACGTGAC	0.00812
CGGTAGAA	-0.313
ATTGACGG	-0.0802
CCGTTAAG	-0.102
GATCAGCC	0.0261
TGCAATAA	-0.0029
AATCAGTG	0.0903
AATGATGC	0.0924
AGCAAAAC	-0.0538

Sequence	PBM E-score
AGTTTGGG	0.181
AGCGGATC	0.134
AAGTGGTC	-0.0588
CTGCCATC	0.0703
GAGGTACC	-0.0338
CGCATCTA	0.106
CATGTCCC	-0.0442
AAATTATG	-0.143
ACCCGCTA	-0.0506
AGAAGTAA	-0.194
ATTCTGTA	-0.046
CGACACCC	0.147
AAGGTAGA	-0.274
AGATTTAA	-0.133
CACAGGTG	0.123
CTGCCCAA	-0.0128
GTTGACAA	0.0308
ATACGTGC	0.145
AACTACCC	0.0648
CTCGAATA	-0.247
GAGTTGCA	-0.0728
CCGCACAA	-0.0159
ATGCACCG	-0.0282
AAAGAATT	-0.206
CTAAGGCA	-0.113

Sequence	PBM E-score
ACACGCGC	0.112
AATCGTAG	-0.0117
CGTCCCAC	0.0371
AGCTATCA	0.0299
GTCCAGAC	-0.0483
CAGGGTAG	-0.018
AGTCTACG	-0.0825
AGCAACAC	0.0703
GGTCCACC	-0.123
GTAAGCAC	-0.114
TACAAGAA	0.0257
CTAGTCAC	0.34
CCGGGCTA	-0.0844
GAAAGAAA	-0.0351
GCTACTGA	0.134
CAGTGACC	0.0882
CCTGCAAA	-0.293
AACGGTAA	-0.0577
ACTCCCGA	0.0297
GTAGGGTA	0.0298
CTCCCGTA	-0.122
AGCCGAAA	-0.108
CGCTGACA	0.0209
GGCTTGCA	0.0962
GTGCTAAC	-0.104

Sequence	PBM E-score
AATTTACC	-0.103
TGGATTAA	0.0399
ACATAGAG	0.0621
CAGGAAGA	-0.116
ACGTCTGA	0.0117
ACAATGCT	-0.0282
CTGACACC	0.0756
ACGGACCA	-0.0546
ATCATATA	0.221
CCACAATC	0.149
CTCCTATA	-0.0775
CGTGCCTC	0.0795
GAACTGAA	-0.0783
TAAGGACA	-0.0737
GCACTTAC	-0.0973
AGTCCGGC	0.0728
CCTCGCTC	0.0996
TGGTTCAA	0.289
ACGTGACT	0.41
CCTAGCAA	-0.0178
GACACGAC	0.216
CAAAGAGG	-0.0673
GATTCATA	0.154
AATCGACT	0.014
CAATAGCC	-0.0353

Sequence	PBM E-score
CTAGGAGC	-0.12
GCCCCCAA	-0.239
ACATTGGT	-0.125
GGTAGAAC	-0.197
ACTATAAG	0.0069
GAGGTGGC	-0.141
CGACCGCA	-0.00903
AATGACTA	0.353
AAGATGAT	-0.0576
ATGTGGGG	-0.0749
AGCTGTAG	0.132
CCCGTCGA	0.0174
GATAAAAA	-0.032
AAAGTGTC	-0.136
ACTATGGA	0.0575
AGACTTTG	-0.271
AGGGGGGG	-0.261
ACTGCTAG	-0.0984
AATTTTGA	0.00148
GATCAGTA	0.121
CCAAGGAA	-0.156
CGAATGAA	0.0313
CTTTTGCC	0.0594
GGACAGCA	-0.0306
ATTTCCTG	-0.032

Sequence	PBM E-score
GAGACCCC	0.0929
ATTTTTTC	-0.263
ATATACTG	0.176
AGGCAAGC	-0.288
CCAAGTAG	-0.0526
CCTGGTCG	-0.0864
CGAGATTC	0.144
CTGGCTGC	-0.021
CGTCCCTA	-0.129
CATGATAC	0.228
CCAACTGA	0.0392
CGTCATAA	0.016
AAACATGT	0.103
AAATCCAC	-0.155
GTTGCACA	0.0803
CAAAATTA	-0.101
CCCCAAGG	-0.104
CTGCTTCA	-0.21
ACGGAATA	0.109
ACGCCGGA	-0.00963
CCCGTCGC	0.136
AAACACCC	-0.0796
